Laboratory results taken from PubChem BioAssay AID256 (DTP/NCI, 2004).
“And” between values parts separate entries of the source, which are not always exact repeats. Equal entries are not always repeated. This continues a long series; more values of the same kind are listed elsewhere. Toxic doses and inconclusive results are not listed. How the source made its calls: active means survival T/C of 150% or more; inactive means T/C below 125% in these data.

Tested on: CD2F1 mice, L1210 leukemia ip, survival T/C
Experiment: NCI In Vivo Anticancer Drug Screen. Data for tumor model L1210 Leukemia (intraperitoneal) in CD2F1 (CDF1) mice
Conditions: higher = longer survival
Summary of the method: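 Antitumor effect is scored in animals hosting a serially transplanted tumor. Values compare compound-dosed animals against vehicle-only controls as a simple quotient.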

Measured: T/C

O=c1[nH]cc(F)c(=O)[nH]1
inactive: endpoint: mean survival time, dose: 3.13 mg/kg/injection, schedule: Q01DX009 (ip), vehicle: saline 111 % of control | endpoint: mean survival time, dose: 3.75 mg/kg/injection, schedule: Q01DX003 (oral), vehicle: saline 100 % of control | endpoint: mean survival time, dose: 4.0 mg/kg/injection, schedule: Q01DX009 (oral), vehicle: saline 101 % of control | endpoint: mean survival time, dose: 6.25 mg/kg/injection, schedule: Q03HX024 (oral), vehicle: saline 98 % of control | endpoint: mean survival time, dose: 7.5 mg/kg/injection, schedule: Q01DX003 (oral), vehicle: saline 98 % of control | endpoint: mean survival time, dose: 7.5 mg/kg/injection, schedule: Q01DX005 (oral), vehicle: saline 101 % of control | endpoint: mean survival time, dose: 8.0 mg/kg/injection, schedule: Q01DX009 (oral), vehicle: saline 101 % of control | endpoint: mean survival time, dose: 12.5 mg/kg/injection, schedule: Q03HX008 (oral), vehicle: saline 100 % of control | endpoint: mean survival time, dose: 12.5 mg/kg/injection, schedule: Q03HX016 (ip), vehicle: saline 96 % of control | endpoint: mean survival time, dose: 15.0 mg/kg/injection, schedule: Q01DX003 (oral), vehicle: saline 99 % of control | endpoint: mean survival time, dose: 15.0 mg/kg/injection, schedule: Q01DX005 (oral), vehicle: saline 103 % of control | endpoint: mean survival time, dose: 15.7 mg/kg/injection, schedule: Q01DX001 (oral), vehicle: saline 110 % of control | endpoint: mean survival time, dose: 15.7 mg/kg/injection, schedule: Q## X003 (oral), vehicle: saline 112 % of control | endpoint: mean survival time, dose: 31.3 mg/kg/injection, schedule: Q01DX001 (oral), vehicle: saline 108 % of control | endpoint: mean survival time, dose: 31.3 mg/kg/injection, schedule: Q## X003 (oral), vehicle: saline 108 % of control | endpoint: mean survival time, dose: 32.0 mg/kg/injection, schedule: Q01DX009 (ip), vehicle: water 100 % of control | endpoint: mean survival time, dose: 32.0 mg/kg/injection, schedule: Q03HX008 (ip), vehicle: water 104 % of control | endpoint: mean survival time, dose: 32.0 mg/kg/injection, schedule: Q03HX024 (ip), vehicle: water 100 % of control | endpoint: mean survival time, dose: 33.8 mg/kg/injection, schedule: Q01DX009 (ip), vehicle: saline 95 % of control | endpoint: mean survival time, dose: 39.0 mg/kg/injection, schedule: Q01DX009 (ip), vehicle: saline 104 % of control and 108 % of control | endpoint: mean survival time, dose: 39.0 mg/kg/injection, schedule: Q01DX017 (ip), vehicle: saline 105 % of control | endpoint: mean survival time, dose: 40.0 mg/kg/injection, schedule: Q01DX006 (ip), vehicle: saline 101 % of control | endpoint: mean survival time, dose: 40.0 mg/kg/injection, schedule: Q01DX007 (ip), vehicle: saline 102 % of control | endpoint: mean survival time, dose: 40.0 mg/kg/injection, schedule: Q03HX016 (ip), vehicle: saline 82 % of control | endpoint: mean survival time, dose: 50.0 mg/kg/injection, schedule: Q01DX009 (ip), vehicle: saline 90 % of control and 92 % of control | endpoint: mean survival time, dose: 50.0 mg/kg/injection, schedule: Q03HX016 (ip), vehicle: saline 104 % of control | endpoint: mean survival time, dose: 50.0 mg/kg/injection, schedule: Q03HX024 (oral), vehicle: saline 87 % of control | endpoint: mean survival time, dose: 60.0 mg/kg/injection, schedule: Q01DX003 (oral), vehicle: saline 103 % of control | endpoint: mean survival time, dose: 60.0 mg/kg/injection, schedule: Q01DX005 (ip), vehicle: saline 102 % of control | endpoint: mean survival time, dose: 62.5 mg/kg/injection, schedule: Q## X003 (oral), vehicle: saline 106 % of control | endpoint: mean survival time, dose: 64.0 mg/kg/injection, schedule: Q01DX009 (ip), vehicle: water 106 % of control | endpoint: mean survival time, dose: 64.0 mg/kg/injection, schedule: Q03HX008 (ip), vehicle: water 87 % of control | endpoint: mean survival time, dose: 64.0 mg/kg/injection, schedule: Q03HX016 (ip), vehicle: water 96 % of control | endpoint: mean survival time, dose: 80.0 mg/kg/injection, schedule: Q01DX007 (ip), vehicle: saline 98 % of control | endpoint: mean survival time, dose: 80.0 mg/kg/injection, schedule: Q03DX003 (ip), vehicle: saline 109 % of control | endpoint: mean survival time, dose: 100.0 mg/kg/injection, schedule: Q01DX009 (oral), vehicle: saline 88 % of control | endpoint: mean survival time, dose: 101.3 mg/kg/injection, schedule: Q04DX003 (ip), vehicle: saline 96 % of control | endpoint: mean survival time, dose: 120.0 mg/kg/injection, schedule: Q01DX005 (oral), vehicle: saline 94 % of control | endpoint: mean survival time, dose: 125.0 mg/kg/injection, schedule: Q04DX003 (oral), vehicle: saline 96 % of control | endpoint: mean survival time, dose: 128.0 mg/kg/injection, schedule: Q01DX009 (oral), vehicle: saline 102 % of control | endpoint: mean survival time, dose: 160.0 mg/kg/injection, schedule: Q01DX002 (ip), vehicle: saline 87 % of control | endpoint: mean survival time, dose: 160.0 mg/kg/injection, schedule: Q04DX003 (ip), vehicle: saline 107 % of control | endpoint: mean survival time, dose: 200.0 mg/kg/injection, schedule: Q01DX009 (oral), vehicle: saline 86 % of control | endpoint: mean survival time, dose: 200.0 mg/kg/injection, schedule: Q08DX002 (oral), vehicle: saline 89 % of control | endpoint: mean survival time, dose: 240.0 mg/kg/injection, schedule: Q04DX003 (ip), vehicle: saline 101 % of control | endpoint: mean survival time, dose: 250.0 mg/kg/injection, schedule: Q04DX003 (oral), vehicle: saline 108 % of control | endpoint: mean survival time, dose: 256.0 mg/kg/injection, schedule: Q01DX009 (oral), vehicle: saline 96 % of control | endpoint: mean survival time, dose: 256.0 mg/kg/injection, schedule: Q04DX003 (ip), vehicle: water 103 % of control | endpoint: mean survival time, dose: 400.0 mg/kg/injection, schedule: Q04DX003 (oral), vehicle: saline 91 % of control | endpoint: mean survival time, dose: 400.0 mg/kg/injection, schedule: Q08DX002 (oral), vehicle: saline 87 % of control | endpoint: mean survival time, dose: 500.0 mg/kg/injection, schedule: Q01DX001 (oral), vehicle: saline 109 % of control | endpoint: mean survival time, dose: 500.0 mg/kg/injection, schedule: Q04DX003 (oral), vehicle: saline 102 % of control | endpoint: mean survival time, dose: 512.0 mg/kg/injection, schedule: Q01DX001 (ip), vehicle: water 93 % of control | endpoint: mean survival time, dose: 512.0 mg/kg/injection, schedule: Q08DX002 (ip), vehicle: water 92 % of control | endpoint: mean survival time, dose: 1000.0 mg/kg/injection, schedule: Q01DX001 (oral), vehicle: saline 103 % of control | endpoint: mean survival time, dose: 1000.0 mg/kg/injection, schedule: Q04DX003 (oral), vehicle: saline 96 % of control | endpoint: median survival time, dose: 3.89 mg/kg/injection, schedule: Q01DX009 (ip), vehicle: saline 110 % of control | endpoint: median survival time, dose: 64.0 mg/kg/injection, schedule: Q01DX005 (ip), vehicle: saline 101 % of control | endpoint: median survival time, dose: 110.0 mg/kg/injection, schedule: Q04DX003 (ip), vehicle: saline 110 % of control | endpoint: median survival time, dose: 128.0 mg/kg/injection, schedule: Q01DX005 (ip), vehicle: saline 101 % of control | endpoint: median survival time, dose: 133.0 mg/kg/injection, schedule: Q01DX001 (ip), vehicle: saline 100 % of control | endpoint: median survival time, dose: 200.0 mg/kg/injection, schedule: Q01DX001 (ip), vehicle: saline 100 % of control | endpoint: median survival time, dose: 256.0 mg/kg/injection, schedule: Q01DX005 (ip), vehicle: saline 98 % of control | endpoint: median survival time, dose: 267.0 mg/kg/injection, schedule: Q01DX001 (ip), vehicle: saline 100 % of control | endpoint: median survival time, dose: 512.0 mg/kg/injection, schedule: Q01DX005 (ip), vehicle: saline 95 % of control
active: endpoint: mean survival time, dose: 8.0 mg/kg/injection, schedule: Q03HX024 (ip), vehicle: water 184 % of control | endpoint: mean survival time, dose: 10.0 mg/kg/injection, schedule: Q03HX024 (ip), vehicle: saline 213 % of control | endpoint: mean survival time, dose: 14.0 mg/kg/injection, schedule: Q01DX009 (ip), vehicle: saline sonified 176 % of control | endpoint: mean survival time, dose: 14.0 mg/kg/injection, schedule: Q01DX009 (ip), vehicle: saline with Tween-80 = 186 % of control | endpoint: mean survival time, dose: 14.0 mg/kg/injection, schedule: Q01DX017 (ip), vehicle: saline 211 % of control | endpoint: mean survival time, dose: 16.0 mg/kg/injection, schedule: Q03HX016 (ip), vehicle: water 184 % of control | endpoint: mean survival time, dose: 18.0 mg/kg/injection, schedule: Q01DX009 (ip), vehicle: saline 194 % of control | endpoint: mean survival time, dose: 20.0 mg/kg/injection, schedule: Q01DX005 (ip), vehicle: saline 187 % of control | endpoint: mean survival time, dose: 20.0 mg/kg/injection, schedule: Q01DX006 (ip), vehicle: saline 183 % of control | endpoint: mean survival time, dose: 20.0 mg/kg/injection, schedule: Q01DX007 (ip), vehicle: saline 192 % of control | endpoint: mean survival time, dose: 20.0 mg/kg/injection, schedule: Q01DX009 (ip), vehicle: saline sonified 178 % of control and 197 % of control | endpoint: mean survival time, dose: 27.0 mg/kg/injection, schedule: Q01DX005 (ip), vehicle: saline 193 % of control | endpoint: mean survival time, dose: 30.0 mg/kg/injection, schedule: Q01DX005 (ip), vehicle: saline 178 % of control and 188 % of control and 191 % of control | endpoint: mean survival time, dose: 30.0 mg/kg/injection, schedule: Q01DX009 (ip), vehicle: saline with Tween-80 = 177 % of control | endpoint: mean survival time, dose: 40.0 mg/kg/injection, schedule: Q03DX003 (ip), vehicle: saline 180 % of control | endpoint: mean survival time, dose: 40.0 mg/kg/injection, schedule: Q04DX003 (ip), vehicle: saline sonified 186 % of control | endpoint: mean survival time, dose: 60.0 mg/kg/injection, schedule: Q04DX003 (ip), vehicle: saline sonified 188 % of control and 209 % of control | endpoint: mean survival time, dose: 60.0 mg/kg/injection, schedule: Q04DX003 (ip), vehicle: saline with Tween-80 = 181 % of control and 214 % of control | endpoint: mean survival time, dose: 66.0 mg/kg/injection, schedule: Q04DX003 (ip), vehicle: saline 195 % of control and 197 % of control | endpoint: mean survival time, dose: 75.0 mg/kg/injection, schedule: Q04DX003 (ip), vehicle: saline 178 % of control | endpoint: mean survival time, dose: 90.0 mg/kg/injection, schedule: Q04DX003 (ip), vehicle: saline with Tween-80 = 176 % of control | endpoint: mean survival time, dose: 100.0 mg/kg/injection, schedule: Q04DX003 (ip), vehicle: saline with Tween-80 = 191 % of control | endpoint: mean survival time, dose: 120.0 mg/kg/injection, schedule: Q04DX003 (ip), vehicle: saline sonified 193 % of control | endpoint: mean survival time, dose: 133.0 mg/kg/injection, schedule: Q07DX002 (ip), vehicle: saline 188 % of control | endpoint: mean survival time, dose: 200.0 mg/kg/injection, schedule: Q07DX002 (ip), vehicle: saline 191 % of control | endpoint: mean survival time, dose: 267.0 mg/kg/injection, schedule: Q07DX002 (ip), vehicle: saline 180 % of control | endpoint: median survival time, dose: 10.8 mg/kg/injection, schedule: Q01DX009 (ip), vehicle: saline 184 % of control | endpoint: median survival time, dose: 15.0 mg/kg/injection, schedule: Q01DX009 (ip), vehicle: saline 190 % of control and 194 % of control | endpoint: median survival time, dose: 16.0 mg/kg/injection, schedule: Q01DX005 (ip), vehicle: saline 180 % of control | endpoint: median survival time, dose: 30.0 mg/kg/injection, schedule: Q01DX001 (ip), vehicle: alkali diluted with saline 187 % of control | endpoint: median survival time, dose: 30.0 mg/kg/injection, schedule: Q01DX009 (ip), vehicle: saline 227 % of control | endpoint: median survival time, dose: 30.0 mg/kg/injection, schedule: Q## X009 (ip), vehicle: saline 227 % of control | endpoint: median survival time, dose: 32.0 mg/kg/injection, schedule: Q01DX005 (ip), vehicle: saline 196 % of control | endpoint: median survival time, dose: 35.0 mg/kg/injection, schedule: Q01DX005 (ip), vehicle: saline 217 % of control and 218 % of control | endpoint: median survival time, dose: 66.0 mg/kg/injection, schedule: Q04DX003 (ip), vehicle: saline 219 % of control | endpoint: median survival time, dose: 80.0 mg/kg/injection, schedule: Q04DX002 (ip), vehicle: saline 188 % of control | endpoint: median survival time, dose: 100.0 mg/kg/injection, schedule: Q04DX002 (ip), vehicle: saline 220 % of control | endpoint: median survival time, dose: 300.0 mg/kg/injection, schedule: Q01DX001 (ip), vehicle: Klucel (hydroxypropylcellulose) (HPC) 180 % of control and 183 % of control | endpoint: median survival time, dose: 600.0 mg/kg/injection, schedule: Q01DX001 (ip), vehicle: Klucel (hydroxypropylcellulose) (HPC) 185 % of control (2×) and 196 % of control
